Data: PMC12136788
This is one part of the list.

B1: chr15:58001004:58001005:+_ENSG00000255529_ENST00000299638|hu_mus|motif|central (ssRNA)
RNA: GGGAGUUCUACAGUCCGACGAUCGUCUACAUCGGUGUCAGCUCUUGUGGUUGCUUUUUGCCUUAGCUUACAGUCGGCACGGACAGGAUGAAACAGUUCACUUCUCCCUCUAACCUCUUCACGUUCUGAAAUGGCAGCUUUCAGCAACAGAGGAUUGAGCAUCA
B2: chr7:118222036:118222037:-_ENSMUSG00000005610_ENSMUST00000162415|mus_mus|motif|central (ssRNA)
RNA: GGGAGUUCUACAGUCCGACGAUCAUCAAAGUUUGGUGCAUCUUCUGCCAAUCGCAGACAUAGCUGAGCAUACAGCGAGCGGUACUUUGGCUCUUCUAAGGCUUUGUCCACAAUCAGCAGUAUGACCCCUUUAAGGAUGAGUUUCAACAGAGGAUUGAGCAUCA
B3: chr7:98534794:98534795:+_ENSG00000196367_ENST00000456197|hu_mus|FALSE|FALSE (ssRNA)
RNA: GGGAGUUCUACAGUCCGACGAUCUGAGGGCUUUGAAAAGAGCAGCAAUGAUUUUCUCCCUGGACUGAGGUAGGUAAUUGCAGGCAGCGAGAGCAUUCAAUGCUGCGAUCCGUAAGGGCACAAGCGAUGGGAGGCUUUUGUAACCAACAGAGGAUUGAGCAUCA
B4: chr11:77340882:77340883:-_ENSG00000074201_ENST00000525064|hu_hu|FALSE|FALSE (ssRNA)
RNA: GGGAGUUCUACAGUCCGACGAUCAACAUACAAAUGCUCUCCUAGACAGUCACUUCGGUCCCUGGAUAAUGCAUGUAAACUAAUGGUGGGGUAUUCCAGUGAGAAUCCUAAUCCAGAGCCAUCUAACCAAGACAGGCGGCUCUCCAACAGAGGAUUGAGCAUCA
B5: chr4:76691598:76691599:+_ENSG00000138768_ENST00000264904|hu_hu|FALSE|FALSE (ssRNA)
RNA: GGGAGUUCUACAGUCCGACGAUCUGCUUAAUGAAAAUUUCUGUAAAUUGGCUUCCCAAAUCUUCACUCUGUCUUGUGGAAUUUUCUUCUACUUCUUCUUCUUCUUCAUUAGAUAUUAUAUUAUAUAGUGUGUCCAAAGCAUAACAACAGAGGAUUGAGCAUCA
B6: chr18:59899606:59899607:+_ENSG00000134444_ENST00000256858|hu_hu|motif|central (ssRNA)
RNA: GGGAGUUCUACAGUCCGACGAUCUCCCAGCAUUAACAUAACGCUUUUUUCACUGUCUGCAAUACGAGACACCUCGUAUCCGGAACGACUAUCUGCUGACAUUCGACAAAAAGAGAGUAGUGCUUGAUGGAAUGCAGGAGACAACAACAGAGGAUUGAGCAUCA
B7: chr9:100389865:100389866:-_ENSG00000136925_ENST00000341170|hu_mus|FALSE|FALSE (ssRNA)
RNA: GGGAGUUCUACAGUCCGACGAUCUAUCAGUGGGACAGGUUCCUUGCAGACAAGUAUCUUCCGCAAACCCUAGGCCUUUCCUGGGUCUCCCUUCACCAACUUGGCGCUGCUCCCCGCCCUCGAGCCCACGCCCCCCGGCGCGCGCAACAGAGGAUUGAGCAUCA
B8: 51412488_51412608_1970_3pUTR_ENSMUSG00000004980_ENSMUST00000114459|mouse|control|control (ssRNA)
RNA: GGGAGUUCUACAGUCCGACGAUCAGACCUGUGUCCCUGAAGAGUACCUCGCUGGGGUUAUUUCCUUUCCUUGCAUUGAAGAAGCAGCAUCUAAAAGAUCUAAAAAGGUGUUUCUCUUUGCAGAGAUAUCCCUUAAGUUAACUACAACAGAGGAUUGAGCAUCA
B9: chr16:94690093:94690094:+_ENSMUSG00000040785_ENSMUST00000117648|mus_hu|mus_mus_mus_hu_True|78_78 (ssRNA)
RNA: GGGAGUUCUACAGUCCGACGAUCGGGCUGGGAUGACGGACACACAGCCUCGAUUCCGGUAAAAAAAAGUCUUAGUCGAUACUAAUUAAAAAGUGUUAAUGAUUUUUGAAAAUCAGAUUACAUCUAUAAAAGAUGAAAAGCAAACAACAGAGGAUUGAGCAUCA
B10: chrX:20248510:20248511:+_ENSMUSG00000001924_ENSMUST00000001989|perfect_dup|motif|central (ssRNA)
RNA: GGGAGUUCUACAGUCCGACGAUCGACCUGACUGACGAUGCCUCCACGGAUGUAGUCGGAGAAGUUGGAGGUGUCACAGAUGCGGAAGGUAUAAGGACCCAGGACUUUGAUCUCCAUGGGCUGAUUUCCGUUGAGUUCAACCAUCAACAGAGGAUUGAGCAUCA
B11: 75176787_75176907_119_3pUTR_ENSMUSG00000026198_ENSMUST00000027396|mouse|control|control (ssRNA)
RNA: GGGAGUUCUACAGUCCGACGAUCAUGGAGCUACGCCGCUUGGGUCGCGGGAAGGGACGCACGUGGACCUGCUACACUGCCCACUCUCUUCACGCACGCGCCGCUACCACGCAUACUCACGCAAGCCACGUACGCCGUGCUUGCCAACAGAGGAUUGAGCAUCA
B12: chr11:87794696:87794697:-_ENSMUSG00000020483_ENSMUST00000020775|mus_mus|motif|central (ssRNA)
RNA: GGGAGUUCUACAGUCCGACGAUCGGCCUUUUAUUUUUAUCUAGGGAGAGAAGAGAAAAGGAGGGGUAGGAGAGAUUUCCGGGUGCAGUACAACCAAAAAAAUAAUGUUAACGUCUUAAAAACAAACGCAAAGCAGCCUUCUUCCAACAGAGGAUUGAGCAUCA
B13: chr13:59231463:59231464:+_ENSMUSG00000055254_ENSMUST00000079828|mus_mus|FALSE|FALSE (ssRNA)
RNA: GGGAGUUCUACAGUCCGACGAUCAAAUGGAAACACUGGUCUCCCUCGGUCUAAAUGACUACCCAAAUACCUGUAAAUUUCUAUAUAAAUUUACCCUCUCUUUUCGGAAAACCAAUGACCAUGUGCGGGCGCAAAUCUCCAGGCCAACAGAGGAUUGAGCAUCA
B14: chr8:108204030:108204031:+_ENSMUSG00000005698_ENSMUST00000005841|mus_mus|FALSE|FALSE (ssRNA)
RNA: GGGAGUUCUACAGUCCGACGAUCGGCCACAGGCUGAGGUGGAGGCGGAGGCUGGGGCUGAGGCUCUGGCUCAGGUUCAAUUUCUACAGCAGGCUCCUCCUCCUCCUCAUUGUCAUCGAGAUCCGGCUCAGCAUUUUCUUCACUCAACAGAGGAUUGAGCAUCA

Biological target: T1, UNK ZnF1-3 (human, UniProt Q9C0B0 31-174)
T1 sequence: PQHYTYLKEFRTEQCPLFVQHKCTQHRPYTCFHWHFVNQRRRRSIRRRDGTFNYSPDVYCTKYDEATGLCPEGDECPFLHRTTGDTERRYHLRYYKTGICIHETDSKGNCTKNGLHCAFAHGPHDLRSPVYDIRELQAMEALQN
Assay: nsRBNS (natural sequence RNA bind-n-seq); RBNS binding buffer (assumed for nsRBNS): 25 mM Tris pH 7.5, 150 mM KCl, 3 mM MgCl2, 0.01% Triton X-100, 500 ug/ml BSA, 20 U/ml SUPERase-In, 4 C; UNK is unkempt and MSI1 is Musashi-1; names of the RNAs are library labels; protein concentration not given here; high values mean tight binding

Binder | binding signal
B1 | 0.525 enrichment R
B2 | 0.616 enrichment R
B3 | 1.14 enrichment R
B4 | 1.32 enrichment R
B5 | 0.655 enrichment R
B6 | 0.699 enrichment R
B7 | 1.19 enrichment R
B8 | 0.869 enrichment R
B9 | 1.54 enrichment R
B10 | 0.457 enrichment R
B11 | 0.499 enrichment R
B12 | 1.99 enrichment R
B13 | 0.967 enrichment R
B14 | 0.507 enrichment R
